Among the data in the antibiotic and cytotoxicity screens of Wong et al. (2023) are cytotoxicity call and growth inhibition call values, retold here.

The list shows a part of the results.

The test system of test [1] is HSkMC (human skeletal muscle cells). In words: cytotoxicity call (relative viability < 0.9). As to conditions: 10 µM.
For test [2], the system named is S. aureus RN4220. In words: growth inhibition call (relative growth <= 0.2). As to conditions: 50 µM.

On to `CO[C@H](CN(C)S(=O)(=O)c1cn(C)cn1)[C@@H](C)CN(C(=O)Nc1ccc(C(F)(F)F)cc1)[C@H](C)CO`, for which, in test [1], the cytotoxicity call is “inactive”. The growth inhibition call in test [2] was “active”.

Regarding `COc1ccc(NC(=O)Nc2ccc3c(c2)C(=O)N([C@H](C)CO)C[C@@H](C)[C@@H](CN(C)Cc2ccc(C(F)(F)F)cc2)OCCCC[C@H](C)O3)cc1`, in test [1], the cytotoxicity call is “inactive”. The growth inhibition call in test [2] was “inactive”.

Turning to `C[C@H](CO)N1C[C@H](C)[C@@H](CN(C)CC2CC2)OCCCC[C@H](C)Oc2ccc(NC(=O)Nc3ccc4c(c3)OCO4)cc2C1=O`, the cytotoxicity call in test [1] was “inactive”. For the same compound, in test [2], the growth inhibition call was “inactive”.

Take `C[C@@H]1CN([C@@H](C)CO)C(=O)c2cccc(NC(=O)c3cnccn3)c2O[C@H]1CN(C)Cc1ccccc1`: in test [1], the cytotoxicity call is “inactive”. Besides, the growth inhibition call in test [2] was “inactive”.

For `Brc1ccc2nc(N3CCCN(Cc4ccccc4)CC3)nc(NC3CCN(Cc4ccccc4)CC3)c2c1`, in test [1], the cytotoxicity call is “active”. The growth inhibition call in test [2] was “active”.

As for `Cc1noc(C)c1S(=O)(=O)Nc1ccc2c(c1)C(=O)N([C@H](C)CO)C[C@H](C)[C@H](CN(C)C(=O)Nc1ccccc1)O2`, the cytotoxicity call in test [1] is “inactive”. Also, in test [2], the growth inhibition call was “inactive”.

For `C[C@@H]1CN([C@H](C)CO)C(=O)c2cc(NS(=O)(=O)c3ccc(Cl)cc3)ccc2O[C@@H](C)CCCCO[C@@H]1CN(C)Cc1ccccc1`, in test [1], the cytotoxicity call was “inactive”. In test [2], the growth inhibition call is “inactive”.

For the compound `CN(C)CCC(c1ccccc1)c1ccccn1.O=C(O)C=CC(=O)O` (stereo not drawn), the cytotoxicity call in test [1] is “inactive”. For the same compound, the growth inhibition call in test [2] was “inactive”.

`Cc1ccc(NC(=O)[C@@H]2[C@@H]3CC/C=C\CC/C=C/CC[C@@H]32)cc1C`: the cytotoxicity call in test [1] is “inactive”. In addition, the growth inhibition call in test [2] is “inactive”.

With `COc1ccc(NC(=O)N(C)C[C@H]2Oc3ccc(NC(=O)Nc4cccc5ccccc45)cc3C(=O)N([C@@H](C)CO)C[C@@H]2C)cc1`, the cytotoxicity call in test [1] was “inactive”. The growth inhibition call in test [2] is “inactive”.

As for `C[C@H](CO)N1C[C@H](C)[C@@H](CN(C)C(=O)c2ccccn2)Oc2cc(C#Cc3ccccc3)ccc2S1(=O)=O`, the cytotoxicity call in test [1] was “inactive”. In addition, the growth inhibition call in test [2] is “inactive”.

As to `C[C@H]1CCCCO[C@H](CN(C)S(=O)(=O)c2ccccc2)[C@@H](C)CN([C@@H](C)CO)C(=O)c2cc(NC(=O)C3CCCCC3)ccc2O1`, the cytotoxicity call in test [1] was “inactive”. Besides, in test [2], the growth inhibition call was “inactive”.

For `O=C(N/N=C/[C@H](O)[C@@H](O)[C@@H](O)[C@H](O)CO)c1ccccn1`, the cytotoxicity call in test [1] was “inactive”. In test [2], the growth inhibition call is “inactive”.

In the case of `C[C@H]1CN([C@@H](C)CO)C(=O)Cc2cc(NC(=O)NC3CCCCC3)ccc2O[C@H]1CN(C)S(C)(=O)=O`, the cytotoxicity call in test [1] was “inactive”. Besides, in test [2], the growth inhibition call was “inactive”.

`C[C@H](CO)N1C[C@H](C)[C@H](CN(C)Cc2ccc3c(c2)OCO3)Oc2c(NS(=O)(=O)c3cn(C)cn3)cccc2C1=O`: the cytotoxicity call in test [1] is “inactive”. For the same compound, in test [2], the growth inhibition call is “inactive”.

In the case of `C[C@H](CO)N1C[C@H](C)[C@H](CN(C)S(=O)(=O)c2ccc(F)cc2)Oc2c(NS(=O)(=O)c3ccccc3)cccc2C1=O`, in test [1], the cytotoxicity call was “inactive”. The growth inhibition call in test [2] was “inactive”.

Take `NCCC(=O)N1c2ccccc2Sc2ccccc21`: in test [1], the cytotoxicity call is “inactive”. Moreover, the growth inhibition call in test [2] is “inactive”.

For `O=S1(=O)N[C@H](c2ccccc2)CO1`, the cytotoxicity call in test [1] was “inactive”. In addition, the growth inhibition call in test [2] is “inactive”.

Regarding `C[C@@H]1CN([C@@H](C)CO)C(=O)Cc2cc(NS(=O)(=O)c3cn(C)cn3)ccc2O[C@@H]1CN(C)Cc1ccc(C(=O)Nc2ccccc2N)cc1`, the cytotoxicity call in test [1] is “inactive”. For the same compound, the growth inhibition call in test [2] was “inactive”.

Consider `O=C1N[C@H](Cc2c[nH]c3ccccc23)COC(=O)[C@@H](Cc2ccc(F)cc2)CC=CC[C@@H]1CC(=O)N(CCO)Cc1ccccc1`, for which the cytotoxicity call in test [1] was “inactive”. The growth inhibition call in test [2] is “inactive”.

On to `C[C@@H]1CCCCO[C@@H](CN(C)Cc2ccc(C(F)(F)F)cc2)[C@H](C)CN([C@H](C)CO)C(=O)c2cc(NS(=O)(=O)c3cn(C)cn3)ccc2O1`, for which, in test [1], the cytotoxicity call is “inactive”. Moreover, the growth inhibition call in test [2] was “inactive”.

Take `Cc1noc(C)c1NC(=O)Nc1ccc2c(c1)C(=O)N([C@H](C)CO)C[C@H](C)[C@@H](CN(C)CC1CCCCC1)OCCCC[C@H](C)O2`: the cytotoxicity call in test [1] is “inactive”. Besides, in test [2], the growth inhibition call is “inactive”.

As to `Cc1ccc(S(=O)(=O)Nc2ccc3c(c2)C(=O)N([C@H](C)CO)C[C@@H](C)[C@@H](CN(C)Cc2ccccc2)OCCCC[C@@H](C)O3)cc1`, the cytotoxicity call in test [1] is “inactive”. The growth inhibition call in test [2] was “inactive”.

On to `CN(C)C(=O)c1ccc(-c2cccc(-c3nc(C(=O)NC4CCC4)cc4c3[C@@H](CCO)N([S@](=O)C(C)(C)C)C4)c2)cc1`, for which the cytotoxicity call in test [1] is “inactive”. In addition, in test [2], the growth inhibition call is “inactive”.

Consider `C=CCC[C@H](Cc1ccc(F)cc1)C(=O)O[C@H](CNC(=O)[C@@H](CC=C)CC(=O)N(CCO)Cc1ccccc1)c1ccccc1`, for which, in test [1], the cytotoxicity call is “inactive”. Moreover, the growth inhibition call in test [2] was “inactive”.

On to `CCCNC(=O)N[C@H]1CC[C@H](CC(=O)N2CCN(C)CC2)O[C@H]1CO`, for which, in test [1], the cytotoxicity call is “inactive”. In addition, the growth inhibition call in test [2] is “inactive”.

In the case of `COC(=O)c1c2oc(c1C(=O)OC)C(=O)N(C)Cc1cn(nn1)C[C@@H](Cc1ccccc1)NC(=O)N[C@H](COC(=O)NCCCCCC(=O)NO)CC2`, the cytotoxicity call in test [1] was “inactive”. Moreover, the growth inhibition call in test [2] is “inactive”.

Regarding `C[C@@H]1CN([C@@H](C)CO)S(=O)(=O)c2ccc(C3=CCCCC3)cc2O[C@H]1CN(C)C(=O)C1CCOCC1`, the cytotoxicity call in test [1] was “inactive”. For the same compound, the growth inhibition call in test [2] was “inactive”.

For `NCc1ccc2c(c1)CCO2`, the cytotoxicity call in test [1] was “inactive”. In test [2], the growth inhibition call is “inactive”.
